PubChem BioAssay (Tox21)
“And” between values parts separate entries of the source, which are not always exact repeats. Equal values may be shown once. This list was built around the results that the source calls inconclusive (neither active nor inactive); the mix of calls is not that of the screen. Unless noted, the call rests on the fitted dose curve; in most records, active means well fitted cell-killing curve with a large enough effect in the repeat runs; inconclusive means weak or mixed curves, or effect the other way; inactive means no such curve, though single readings can be large or run the other way. Where the call is inconclusive, the potency comes from a doubtful curve fit.

How the values were obtained:
[1] = target: Glucocorticoid receptor (Homo sapiens) (UniProt P04150); experiment: qHTS assay to identify small molecule agonists of the glucocorticoid receptor (GR) signaling pathway (AID 720691; active means well fitted activation curve with a large enough effect in the signal ratio in the repeat runs, not every such curve was filed as active; inconclusive means weak or mixed curves, or effect the other way; inactive means no such curve, though single readings can be large or run the other way; the % refers to the signal ratio); conditions: GR-bla HeLa, beta-lactamase reporter ratio, 18 h; activation: at 62.4 µM (top of the series) unless noted
Method in brief: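 Steps: seed GR-bla HeLa cells, incubate 4 h at 37 C/5% CO2; pin-transfer DMSO-dissolved compounds; incubate 18 h at 37 C; add LiveBLAzer B/G FRET substrate; after 2 h at room temperature, measure fluorescence.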

[2] = target: Glucocorticoid receptor (Homo sapiens) (UniProt P04150); experiment: qHTS assay to identify small molecule antagonists of the glucocorticoid receptor (GR) signaling pathway (AID 720692; active means well fitted inhibition curve with a large enough effect in the signal ratio in the repeat runs, not every such curve was filed as active; inconclusive means weak or mixed curves, or effect the other way; inactive means no such curve, though single readings can be large or run the other way; the % refers to the signal ratio; on activity change, negative = inhibition: on the % scale 0 is the no-effect control and ±100 the full control effect); conditions: GR-bla HeLa, beta-lactamase FRET ratio, dexamethasone-stimulated, 18 h; activity change, negative = inhibition: at 58.5 µM (top of the series) unless noted
Method in brief: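 Antagonism was scored as loss of dexamethasone-driven (5 nM final) reporter signal in HeLa cells bearing a glucocorticoid response element–beta-lactamase construct, after 18 h compound exposure at 37 C and 2 h FRET substrate loading.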

[3] = qHTS assay to identify small molecule antagonists of the glucocorticoid receptor (GR) signaling pathway - cell viability counter screen (AID 720693); conditions: GR-bla HeLa viability, CellTiter-Glo luminescence, 18 h, with 5 nM dexamethasone present; viability change, negative = cytotoxic: at 58.5 µM (top of the series) unless noted; further: nearly all actives have a fitted effect of over 55% in size
[4] = qHTS assay for identifying genotoxic compounds that show differential cytotoxicity against isogenic chicken DT40 cell lines with known DNA damage response pathways - wild type cell line (AID 743012); conditions: DT40 wild type chicken cells viability, CellTiter-Glo, 40 h; activity change, negative = cytotoxicity: at 68.4 µM (top of the series) unless noted; further: nearly all actives have a fitted effect of over 60% in size
Method in brief: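 Cytotoxicity in repair-proficient parental chicken DT40 cells serves as the comparator for Rad54/Ku70- and Rev3-deficient lines. Cells were exposed to compounds for 40 h at 37 C/5% CO2, and ATP-based luminescence (CellTiter-Glo) measured viability.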
Potency means the concentration at half of the fitted maximal effect; tags describe the fitted curve by direction and shape or compound fluorescence and quenching.

UniProt P04150, sequence (P04150 whole entry, looked up): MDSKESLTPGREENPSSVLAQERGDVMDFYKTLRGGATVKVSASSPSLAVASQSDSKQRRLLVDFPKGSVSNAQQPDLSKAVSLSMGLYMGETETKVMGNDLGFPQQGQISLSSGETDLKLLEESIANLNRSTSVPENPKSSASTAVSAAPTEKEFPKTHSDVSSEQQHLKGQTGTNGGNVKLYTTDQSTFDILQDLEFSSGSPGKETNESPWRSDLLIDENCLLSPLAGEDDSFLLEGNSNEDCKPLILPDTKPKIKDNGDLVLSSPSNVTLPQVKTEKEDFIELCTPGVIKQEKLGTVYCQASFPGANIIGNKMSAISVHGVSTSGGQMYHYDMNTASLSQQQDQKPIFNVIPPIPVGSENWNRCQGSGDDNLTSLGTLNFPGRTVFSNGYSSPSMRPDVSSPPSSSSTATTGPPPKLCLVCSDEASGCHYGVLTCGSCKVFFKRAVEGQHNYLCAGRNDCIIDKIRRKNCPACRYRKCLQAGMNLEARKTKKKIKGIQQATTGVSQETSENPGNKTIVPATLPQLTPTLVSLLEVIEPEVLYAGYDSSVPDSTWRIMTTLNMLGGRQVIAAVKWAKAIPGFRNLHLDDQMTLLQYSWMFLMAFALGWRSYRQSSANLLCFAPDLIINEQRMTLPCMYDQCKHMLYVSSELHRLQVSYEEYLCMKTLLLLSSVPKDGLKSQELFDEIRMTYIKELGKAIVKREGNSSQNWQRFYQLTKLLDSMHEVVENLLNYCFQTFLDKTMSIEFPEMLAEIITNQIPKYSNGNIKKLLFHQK

CC1(C)[C@H](C(=O)O[C@H](C#N)c2cccc(Oc3ccccc3)c2)[C@@H]1C=C(Br)Br
inconclusive: Potency [1] 57.2 µM [cytotoxic] and 61.7 µM [single point] | Potency [2] 49 µM [inhibitor, partial curve, poor fit] | activity change, negative = inhibition [2] -22.5% [at 78.9 µM] | Potency [3] 1.74 µM [rising, full curve, poor fit] | Potency [4] 68.6 µM [cytotoxic, single point]
